From PubChem BioAssay AID686979 (National Center for Advancing Translational Sciences (NCATS), 2013)
Several values for one entry are separate records, joined by “and”; a condition that tells them apart may be missing. Equal entries are not always repeated. The campaign covered roughly 420,000 compounds. About 50,000 (12%) were called active. Inconclusive results, whose numbers are uncertain, are shown with a selection of clear calls. The call rests on the fitted dose curve; in most records, active means well fitted inhibition curve with a large enough effect; inconclusive means small, poorly fitted or top-dose-only effect; inactive means flat fitted curve, though single readings scatter. Where the call is inconclusive, the potency comes from a doubtful curve fit. A structure can be active in one record and inactive in another.
On the % scale 0 is the no-effect control and ±100 the full control effect; potency means the concentration at half of the fitted maximal effect; tags describe the fitted curve by direction and shape.

Assay: qHTS for Inhibitors of human tyrosyl-DNA phosphodiesterase 1 (TDP1): qHTS in cells in presence of CPT; further: nearly all actives have a fitted effect of over 55% in size
Details: chicken DT40 Tdp1-/-;hTDP1 cells + 20 nM CPT, ATP luminescence, 48 h; activity change, negative = growth inhibition: at 46.2 µM (top of the series) unless noted
How it was run: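 Cell growth measured by CellTiter-Glo luminescence after a minimum 48 h, 37 C compound exposure with 20 nM CPT in Tdp1-knockout DT40 cells stably expressing hTDP1, seeded 400/well; qHTS titration format.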
In the case of `CCC(=O)Nc1nnc(S(=O)(=O)N(C)Cc2ccccc2)s1`, the “activity change, negative = growth inhibition” value is reported as inactive: 0.0499%.
In the case of `Cc1ccc(CNC(=O)CCSCc2cccc(F)c2)cc1`, the “activity change, negative = growth inhibition” value is reported as inactive: -17.7%.
With `CC(NC(=O)COc1ccc(/C=N/NC(=O)C(=O)Nc2ccccc2Br)cc1)c1ccccc1` (stereo not given) the Potency was inconclusive: 18.4 µM [inhibitor, single point].
With `COC(=O)c1ccc(C(=O)OC)c(NC(=S)N2CCN(c3cc(Cl)ccc3C)CC2)c1` the Potency was inconclusive: 29.1 µM [inhibitor, single point].
For `CCCS(=O)(=O)NC(=O)C1(C)CCCN(C(=O)c2ccc3ccccc3c2)C1` (stereo not given), the “activity change, negative = growth inhibition” value was inactive: 5.49%.
With `CCOc1ccccc1NC(=O)c1cccc2c1C(=O)N(C1CCCCC1)C2` the Potency was inconclusive: 29.1 µM [inhibitor, single point] and inconclusive: 20.6 µM [inhibitor, single point].
In the case of `COc1cc(CN2CCC(n3nccc3NC(=O)CCCc3ccccc3)CC2)ccc1O`, the “activity change, negative = growth inhibition” value is reported as inactive: -29.8%.
With `COc1ccc(N(CC(=O)NCc2ccc(C)cc2)S(=O)(=O)c2c(C)noc2C)cc1` the “activity change, negative = growth inhibition” value was inactive: -6.82%.
In the case of `COc1ccc(CN2[C@@H](CC(=O)O)c3cc(C(F)(F)F)ccc3S2(=O)=O)cc1`, the Potency is reported as inconclusive: 20 µM [inhibitor, single point].
With `CCc1nc(SCC(=O)N2c3ccccc3CC2C)c2c(C)c(C)sc2n1` (stereo not given) the Potency was active: 9.2 µM.
In the case of `Nc1nc(N)nc(-c2cc(C(F)(F)F)ccc2Cl)n1`, the Potency is reported as inconclusive: 29.1 µM [inhibitor, single point].
With `Cc1c(NC(=O)c2ccc(CN3CCc4ccccc4C3)cc2)c(=O)n(-c2ccccc2)n1C` the “activity change, negative = growth inhibition” value was inactive: -16%.
With `O=C(/C=C\Nc1ccc(S(=O)(=O)Nc2ncccn2)cc1)c1ccccc1` the “activity change, negative = growth inhibition” value was inactive: 5.23%.
In the case of `COC(=O)c1scc(S(C)(=O)=O)c1-n1cccc1`, the “activity change, negative = growth inhibition” value is reported as inactive: -21.4%.
For `O=C(NCc1ccccc1)C(c1cc2ccccc2o1)n1c(=O)c(-c2ccccc2)nc2ccccc21` (stereo not given), the Potency was active: 14.6 µM.
For `CCCc1nc2ccc(Cl)cn2c1Cc1ccsc1`, the Potency was active: 20.6 µM.
For `O=C(COC(=O)c1cc(Br)ccc1O)Nc1ccc2c(c1)OCCO2`, the Potency was inconclusive: 23.1 µM [inhibitor, single point].
In the case of `Cc1ccc(NC(=O)CSCc2cc(=O)n3nc(C4CC4)sc3n2)cc1`, the Potency is reported as inconclusive: 25.9 µM [inhibitor, single point].
In the case of `CN(C)CC(O)COC(c1ccccc1)c1ccccc1` (stereo not given), the “activity change, negative = growth inhibition” value is reported as inactive: -9.32%.
For `COc1ccc(C(C)=O)cc1Cn1c(C)c(C(=O)NC2CC2)sc1=O`, the “activity change, negative = growth inhibition” value was inactive: -0.826%.
For `CSc1nc(C(=O)N2CCCC(C(=O)c3ccc(Cl)cc3)C2)cs1` (stereo not given), the Potency was inconclusive: 20.6 µM [inhibitor, single point].
In the case of `CCC[C@H]1CN(c2ccc(Br)cc2)C(=O)[C@@H]1CC(=O)Nc1ccccc1`, the Potency is reported as inconclusive: 29.1 µM [inhibitor, single point].
For `CCCn1c(C(C)Nc2nc(-c3cc(Cl)c(N)c(Cl)c3)cs2)nc2cc(Cl)c(N3CCCCC3)cc21` (stereo not given), the Potency was active: 18.4 µM.
With `O=C1/C(=C/c2ccccc2)CCc2ccc(Cl)nc21` the Potency was active: 2.59 µM.
For `O=C(c1ccc2ccccc2c1)C1CCCN(C(=O)c2cccnc2)C1` (stereo not given), the Potency was active: 16.4 µM.
For `COc1cc(NC(=O)CSCc2cnn(-c3ccccc3)c2-n2cccc2)cc(OC)c1`, the Potency was inconclusive: 23.1 µM [inhibitor, single point].
With `COc1ccc(-c2cc(C(F)(F)F)n3nc(C(=O)Nc4c(C)n(C)n(-c5ccccc5)c4=O)c(Cl)c3n2)cc1` the Potency was inconclusive: 29.1 µM [inhibitor, single point].
With `COCCn1c(=N)c(S(=O)(=O)c2ccc(Br)cc2)cc2c(=O)n3ccccc3nc21` the Potency was inconclusive: 16.4 µM [inhibitor, partial curve].
In the case of `CCOc1ccc(C(=O)OCc2cc(=O)n3nc(C4CCCCC4)sc3n2)cc1`, the Potency is reported as inconclusive: 29.1 µM [inhibitor, single point].
In the case of `Cn1ccnc1-c1nnn(-c2ccc(F)cc2)n1`, the “activity change, negative = growth inhibition” value is reported as inactive: -4.66%.
In the case of `O=C(Nc1ccc(F)c(F)c1)C1CCN(S(=O)(=O)c2cccs2)CC1`, the Potency is reported as inconclusive: 23.1 µM [inhibitor, single point].
With `COc1ccc(C(=O)C2CCCN(Cc3ccc4c(c3)OCCO4)C2)cc1F` (stereo not given) the Potency was inconclusive: 29.1 µM [inhibitor, single point].
For `CN(C)C(CNC(=O)c1ccc(NS(=O)(=O)c2ccc(F)c(F)c2)cc1)c1ccccc1` (stereo not given), the “activity change, negative = growth inhibition” value was inactive: 0.1%.
For `Cc1ccccc1CNC(=O)c1csc([C@H]2C[C@H](O)[C@@H](CO)O2)n1`, the “activity change, negative = growth inhibition” value was inactive: 4.67%.
In the case of `Cc1ccc(S(=O)(=O)N(CCCO)CC(O)CON=C2c3ccccc3-c3ccccc32)cc1` (stereo not given), the Potency is reported as inconclusive: 29.1 µM [inhibitor, single point].
In the case of `Cc1cc(C)cc(NC(=O)NCCn2nnc3cc(S(=O)(=O)N(C)C)ccc32)c1`, the Potency is reported as inconclusive: 3.66 µM [inhibitor, full curve, poor fit].
With `CCCN1C(=O)C(NC(=O)c2ccccc2OC)(C(F)(F)F)C(C(=O)OC)=C1C` (stereo not given) the Potency was inconclusive: 29.1 µM [inhibitor, single point].
With `Cc1cccc(NC(=O)COc2ccc3c(c2)CCC3)n1` the “activity change, negative = growth inhibition” value was inactive: -16.4%.
With `Cc1ccc(C)c(NC(=O)CSc2cn(CC(=O)N3CCCC3)c3ccccc23)c1` the Potency was inconclusive: 14.6 µM [inhibitor, partial curve, poor fit].
With `COc1ccc(OC)c(NC(=O)C(=O)NCCC2=CCCCC2)c1` the Potency was inconclusive: 14.6 µM [inhibitor, partial curve].
For `CCOC(=O)N1CCN(C(=O)c2ccc(N3CC4CC(C3)c3cccc(=O)n3C4)c(NC(=O)c3ccc(F)cc3)c2)CC1` (stereo not given), the “activity change, negative = growth inhibition” value was inactive: -19.9%.
With `COc1ccc(S(=O)(=O)N2CCCCCC2)cc1C(=O)Nc1cc(C)ccn1` the Potency was active: 20.6 µM.
In the case of `CCCc1c(O)nc(SCC(=O)O)[nH]c1=O`, the Potency is reported as inconclusive: 25.9 µM [inhibitor, single point].
For `COc1ccccc1-c1nc(C#N)c(N2CC(C)CC(C)C2)o1` (stereo not given), the Potency was inconclusive: 20.6 µM [inhibitor, partial curve].
With `COc1ccc(-c2cc(C(F)(F)F)n3nc(C(=O)NCc4ccco4)cc3n2)cc1OC` the Potency was inconclusive: 23.1 µM [inhibitor, partial curve].
With `O=C(Nc1ccc(F)cc1)N1CCCN(c2ccc(C(F)(F)F)cn2)CC1` the Potency was inconclusive: 29.1 µM [inhibitor, single point].
With `Cc1cccc(NC(=O)CN2C(=O)CCSc3ccc(S(=O)(=O)N4CCOCC4)cc32)c1C` the Potency was inconclusive: 29.1 µM [inhibitor, single point].
With `CCCCN1CCc2c1nc1ccc(Br)cc1c2N` the Potency was inconclusive: 23.1 µM [inhibitor, single point].
For `N#C/C(=C\c1c(F)cccc1Cl)c1nn(-c2ccccc2)c(-n2cccc2)c1C#N`, the Potency was inconclusive: 29.1 µM [inhibitor, single point].
In the case of `COC(=O)c1cc2occc2n1Cc1nc(-c2ccccc2Cl)oc1C`, the Potency is reported as inconclusive: 29.1 µM [inhibitor, single point].
In the case of `CCOC(=O)c1cc(-c2ccccc2)n(CCC(=O)N2CCN(c3ccc(OC)cc3)CC2)c1C`, the Potency is reported as active: 14.6 µM.
In the case of `COC(=O)c1cn(Cc2cc(OC)ccc2OC)cc(F)c1=O`, the “activity change, negative = growth inhibition” value is reported as inactive: -0.365%.
With `C=C1CC[C@H](O)C/C1=C/C=C1\CCC[C@]2(C)C([C@H](C)CCCC(C)(C)O)CC[C@@H]12` (stereo not given in full) the Potency was active: 0.0461 µM.
For `CCCCN(C(=O)c1cc(S(=O)(=O)N2CCCCC2)ccc1Cl)c1c(N)n(CCC)c(=O)[nH]c1=O`, the “activity change, negative = growth inhibition” value was inactive: -17.7%.
With `COc1ccc(-c2cc(N3CCCC3)n3ncnc3n2)cc1` the Potency was inconclusive: 29.1 µM [inhibitor, single point].
In the case of `CCOc1ccc(NC(=O)Cc2csc(COc3cccc(C)c3)n2)cc1`, the “activity change, negative = growth inhibition” value is reported as inactive: -18.2%.
For `COc1ccc(CCNC(=O)COC(=O)c2ccc(N3CCCC3=O)cc2)cc1OC`, the “activity change, negative = growth inhibition” value was inactive: 8.16%.
For `COc1ccc(/C=C2\C(=O)c3ccccc3OC2c2ccccc2)cc1` (stereo not given), the Potency was inconclusive: 20.6 µM [inhibitor, single point].
With `O=C(COc1cccc(NC(=O)c2ccccc2)c1)c1ccccc1` the Potency was active: 16.4 µM.
For `CCC(C)n1ncn(-c2ccc(N3CCN(c4ccc(O)cc4)CC3)cc2)c1=O` (stereo not given), the Potency was inconclusive: 25.9 µM [inhibitor, single point].
With `Cc1noc(C)c1NC(=O)N(C)C[C@H]1Oc2ccc(NC(=O)C3CC3)cc2C(=O)N([C@H](C)CO)C[C@@H]1C` the Potency was inconclusive: 1.64 µM [inhibitor, partial curve].
In the case of `COc1ccc(-c2c(-c3ccc4c(c3)OCO4)noc2C)cn1`, the Potency is reported as inconclusive: 35.5 µM [inhibitor, single point].
With `Cc1ccc(C)c(S(=O)(=O)N2CCCCC2CCNC(=O)C(=O)NCc2ccco2)c1` (stereo not given) the Potency was active: 16.4 µM.
For `Cc1[nH]c(-c2ccc(F)cc2)cc1C(=O)N1CCN(c2ccccc2)CC1`, the Potency was inconclusive: 29.1 µM [inhibitor, single point].
In the case of `Cc1nn(C)c(C)c1S(=O)(=O)NCCc1ccc(Cl)cc1`, the “activity change, negative = growth inhibition” value is reported as inactive: 17.9%.
For `CSc1ccc(CNC(=O)CCn2ccc3cc(S(=O)(=O)N4CCCC4)ccc32)cc1`, the Potency was inconclusive: 29.1 µM [inhibitor, single point] and inconclusive: 23.1 µM [inhibitor, single point].
With `CN(C)c1cccc(CNC(=O)c2csc(COCCO)n2)c1` the “activity change, negative = growth inhibition” value was inactive: -19%.
In the case of `Cc1occc1-c1nnc(SCC(=O)c2cc3ccccc3oc2=O)o1`, the “activity change, negative = growth inhibition” value is reported as inactive: -10.7%.
For `Cc1[nH]nc(N=CC2=C(O)CC(c3ccco3)CC2=O)c1-c1ccccc1` (stereo not given), the Potency was inconclusive: 29.1 µM [inhibitor, single point].
In the case of `O=C(O)c1ccc(N2C(=O)CC(N3CCC(c4nc5ccccc5[nH]4)CC3)C2=O)cc1` (stereo not given), the “activity change, negative = growth inhibition” value is reported as inactive: 4.21%.
